Some of the results follow.
target: T1, MBP-FoxP1dN (Mus musculus, UniProt P58462 326-579); test: PD-seq (MBP pull-down with sequencing); 20 mM Tris-HCl pH 7.5, 100 mM NaCl, 1.5 mM MgCl2, 0.4 uM protein, 0.1 uM dsDNA library, 30 min, room temperature, amylose pull-down; high values mean tight binding; settings: protein: recombinant; tags: His6-MBP; chain copies: 2; dsDNA, one strand shown
T1 sequence: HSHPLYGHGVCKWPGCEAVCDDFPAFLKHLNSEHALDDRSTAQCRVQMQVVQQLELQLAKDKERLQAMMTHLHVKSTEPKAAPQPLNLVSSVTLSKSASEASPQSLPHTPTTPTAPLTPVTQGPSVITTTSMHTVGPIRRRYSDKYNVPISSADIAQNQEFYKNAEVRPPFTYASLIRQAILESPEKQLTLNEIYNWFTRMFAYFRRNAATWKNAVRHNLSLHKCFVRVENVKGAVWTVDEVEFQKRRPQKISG
Method in brief: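 Mouse FoxP3 or FoxP1 fragment lacking the N-terminus, His6-MBP-tagged and expressed in E. coli, was incubated at 0.4 µM with 0.1 µM Klenow-filled degenerate double-stranded DNA library for 30 min at room temperature in Tris pH 7.5 buffer with NaCl and MgCl2. Complexes captured on amylose resin were washed three times and their DNA sequenced on Illumina. Binding is reads-per-million enrichment of pull-down over input, replicates pooled.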

Sequence | binding signal
GATGATTGTTCTCCCAGCTGATGAATTCTCGCGCTCGAGTAAACAAATTTTCCTAATCTTTCTGTTCAAGCGCCATCTAC | 0.835 RPM ratio (pull-down/input)
GATGATTGTTCTCCCAGCTGATGAATTTACAGTCTCGAGTAAACAAATTTTCCTAATCTTTCTGTTCAAGCGCCATCTAC | 1.12 RPM ratio (pull-down/input)
GATGATTGTTCTCCCAGCTGATGAATTGATCCCTTCGAGTAAACAAATTTTCCTAATCTTTCTGTTCAAGCGCCATCTAC | 1 RPM ratio (pull-down/input)
GATGATTGTTCTCCCAGCTGATGAATTAGGTTTATCGAGTAAACAAATTTTCCTAATCTTTCTGTTCAAGCGCCATCTAC | 1.33 RPM ratio (pull-down/input)
GATGATTGTTCTCCCAGCTGATGAATTTCAGCATTCGAGTAAACAAATTTTCCTAATCTTTCTGTTCAAGCGCCATCTAC | 1.13 RPM ratio (pull-down/input)
GATGATTGTTCTCCCAGCTGATGAATTTAGTATTTCGAGTAAACAAATTTTCCTAATCTTTCTGTTCAAGCGCCATCTAC | 1.24 RPM ratio (pull-down/input)
GATGATTGTTCTCCCAGCTGATGAATTTTCCGTTTCGAGTAAACAAATTTTCCTAATCTTTCTGTTCAAGCGCCATCTAC | 0.931 RPM ratio (pull-down/input)
GATGATTGTTCTCCCAGCTGATGAATTTTAGGCATCGAGTAAACAAATTTTCCTAATCTTTCTGTTCAAGCGCCATCTAC | 1.03 RPM ratio (pull-down/input)
GATGATTGTTCTCCCAGCTGATGAATTTCCAATTTCGAGTAAACAAATTTTCCTAATCTTTCTGTTCAAGCGCCATCTAC | 0.924 RPM ratio (pull-down/input)
GATGATTGTTCTCCCAGCTGATGAATTCCAGCATTCGAGTAAACAAATTTTCCTAATCTTTCTGTTCAAGCGCCATCTAC | 0.998 RPM ratio (pull-down/input)
GATGATTGTTCTCCCAGCTGATGAATTAAGACTATCGAGTAAACAAATTTTCCTAATCTTTCTGTTCAAGCGCCATCTAC | 0.891 RPM ratio (pull-down/input)
GATGATTGTTCTCCCAGCTGATGAATTATCACTGTCGAGTAAACAAATTTTCCTAATCTTTCTGTTCAAGCGCCATCTAC | 0.971 RPM ratio (pull-down/input)
GATGATTGTTCTCCCAGCTGATGAATTGTGAGGGTCGAGTAAACAAATTTTCCTAATCTTTCTGTTCAAGCGCCATCTAC | 0.893 RPM ratio (pull-down/input)
GATGATTGTTCTCCCAGCTGATGAATTTTGGCTGTCGAGTAAACAAATTTTCCTAATCTTTCTGTTCAAGCGCCATCTAC | 0.892 RPM ratio (pull-down/input)
GATGATTGTTCTCCCAGCTGATGAATTTTCCGCGTCGAGTAAACAAATTTTCCTAATCTTTCTGTTCAAGCGCCATCTAC | 0.973 RPM ratio (pull-down/input)
GATGATTGTTCTCCCAGCTGATGAATTGACACAATCGAGTAAACAAATTTTCCTAATCTTTCTGTTCAAGCGCCATCTAC | 1.75 RPM ratio (pull-down/input)

Sequence | binding signal
GATGATTGTTCTCCCAGCTGATGAATTCAACCATTCGAGTAAACAAATTTTCCTAATCTTTCTGTTCAAGCGCCATCTAC | 0.878 RPM ratio (pull-down/input)
GATGATTGTTCTCCCAGCTGATGAATTCTCTACTTCGAGTAAACAAATTTTCCTAATCTTTCTGTTCAAGCGCCATCTAC | 0.907 RPM ratio (pull-down/input)
GATGATTGTTCTCCCAGCTGATGAATTCGGGACCTCGAGTAAACAAATTTTCCTAATCTTTCTGTTCAAGCGCCATCTAC | 0.734 RPM ratio (pull-down/input)
GATGATTGTTCTCCCAGCTGATGAATTGATGTTATCGAGTAAACAAATTTTCCTAATCTTTCTGTTCAAGCGCCATCTAC | 2.17 RPM ratio (pull-down/input)
GATGATTGTTCTCCCAGCTGATGAATTAAATTAGTCGAGTAAACAAATTTTCCTAATCTTTCTGTTCAAGCGCCATCTAC | 0.901 RPM ratio (pull-down/input)
GATGATTGTTCTCCCAGCTGATGAATTAGAGGGATCGAGTAAACAAATTTTCCTAATCTTTCTGTTCAAGCGCCATCTAC | 0.842 RPM ratio (pull-down/input)
GATGATTGTTCTCCCAGCTGATGAATTTCCACTCTCGAGTAAACAAATTTTCCTAATCTTTCTGTTCAAGCGCCATCTAC | 0.82 RPM ratio (pull-down/input)
GATGATTGTTCTCCCAGCTGATGAATTCCCTCATTCGAGTAAACAAATTTTCCTAATCTTTCTGTTCAAGCGCCATCTAC | 0.843 RPM ratio (pull-down/input)
GATGATTGTTCTCCCAGCTGATGAATTGTGATACTCGAGTAAACAAATTTTCCTAATCTTTCTGTTCAAGCGCCATCTAC | 1.3 RPM ratio (pull-down/input)
GATGATTGTTCTCCCAGCTGATGAATTCCGATTGTCGAGTAAACAAATTTTCCTAATCTTTCTGTTCAAGCGCCATCTAC | 1 RPM ratio (pull-down/input)
GATGATTGTTCTCCCAGCTGATGAATTGATTAAGTCGAGTAAACAAATTTTCCTAATCTTTCTGTTCAAGCGCCATCTAC | 1.11 RPM ratio (pull-down/input)
GATGATTGTTCTCCCAGCTGATGAATTAGATATTTCGAGTAAACAAATTTTCCTAATCTTTCTGTTCAAGCGCCATCTAC | 1.03 RPM ratio (pull-down/input)
GATGATTGTTCTCCCAGCTGATGAATTCAGTTGCTCGAGTAAACAAATTTTCCTAATCTTTCTGTTCAAGCGCCATCTAC | 0.978 RPM ratio (pull-down/input)
GATGATTGTTCTCCCAGCTGATGAATTATGACAATCGAGTAAACAAATTTTCCTAATCTTTCTGTTCAAGCGCCATCTAC | 1.38 RPM ratio (pull-down/input)
GATGATTGTTCTCCCAGCTGATGAATTCTTCGCGTCGAGTAAACAAATTTTCCTAATCTTTCTGTTCAAGCGCCATCTAC | 0.892 RPM ratio (pull-down/input)

From article PMC12820563, “FoxP3 forms a head-to-head dimer in vivo and stabilizes its multimerization on adjacent microsatellites”
